Out of some 39,000 compounds screened, about 220 (0.56%) showed activity. The list shows a part of the results.

Results on 56 compounds are retold here after the supplement of paper PMC9446081.
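Further: static incubation at 37 °C against the wild-type strain, values averaged over two biological replicates.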

The subject of the test is Escherichia coli K-12 BW25113. The experiment in a line: relative growth (OD600 normalised to plate interquartile mean) (fraction); higher = less growth inhibition, active = 0.2 or less. The settings on record: 50 µM; LB; incubation time: overnight (16-24 h).
For `COc1cccc(NC(=O)N2C[C@@H](O)COC[C@H]3O[C@H](CC(=O)NCCCN4CCOCC4)CC[C@@H]32)c1`, the relative growth was inactive: 0.921.

Turning to `OCc1ccc(O[C@@H]2O[C@H](CO)[C@@H](O)[C@H](O)[C@H]2O)cc1`, the relative growth is inactive: 1.

Turning to `C[C@H]1CCCCO[C@H](CN(C)C(=O)Nc2cccc3ccccc23)[C@@H](C)CN([C@@H](C)CO)C(=O)c2cc(NS(=O)(=O)c3ccccc3)ccc2O1`, the relative growth is inactive: 1.02.

As for `C[C@@H]1CN([C@H](C)CO)C(=O)c2cc(NC(=O)c3ccccc3)ccc2O[C@@H](C)CCCCO[C@@H]1CN(C)C(=O)Nc1cccc2ccccc12`, the relative growth was inactive: 1.05.

In the case of `Cc1noc(C)c1NC(=O)Nc1ccc2c(c1)C(=O)N([C@@H](C)CO)C[C@@H](C)[C@H](CN(C)S(=O)(=O)c1ccccc1)OCCCC[C@H](C)O2`, the relative growth was inactive: 1.03.

Turning to `C[C@@H]1CN([C@@H](C)CO)S(=O)(=O)c2ccc(-c3ccncc3)cc2O[C@@H]1CN(C)Cc1ccc(Oc2ccccc2)cc1`, the relative growth is inactive: 1.05.

For `C[C@H](CO)N1C[C@H](C)[C@H](CN(C)Cc2ccccn2)Oc2ncc(C#Cc3ccc(F)cc3)cc2C1=O`, the relative growth is inactive: 0.992.

For the compound `C[C@@H]1CN([C@H](C)CO)C(=O)c2cc(NC(=O)Nc3cccc4ccccc34)ccc2O[C@@H](C)CCCCO[C@H]1CN(C)S(=O)(=O)c1ccccc1`, the relative growth was inactive: 1.03.

Turning to `[O-][NH2+][O-]`, the relative growth was inactive: 1.02.

Regarding `C[C@H](CO)N1C[C@H](C)[C@H](CN(C)Cc2ccc(C(F)(F)F)cc2)Oc2ccc(NC(=O)C3CCCCC3)cc2C1=O`, the relative growth was inactive: 1.

Turning to `C[C@H]1CN([C@@H](C)CO)S(=O)(=O)c2ccc(C#Cc3ccncc3)cc2O[C@@H]1CN(C)C(=O)C1CCC1`, the relative growth is inactive: 0.92.

Regarding `COCC(=O)N1CC(=O)N2[C@H](CO)[C@@H](c3ccc(C#Cc4cccnc4)cc3)[C@@H]2C1`, the relative growth was inactive: 0.935.

On to `COc1ccc(NC(=O)Nc2ccc3c(c2)C(=O)N([C@@H](C)CO)C[C@@H](C)[C@@H](CN(C)S(=O)(=O)c2ccc(OC)cc2)OCCCC[C@@H](C)O3)cc1`, for which the relative growth was inactive: 1.05.

For the compound `CN(C)CC(=O)N1[C@@H]2c3ccc(-c4ccccc4)c(=O)n3C[C@H]1[C@H](CO)[C@H]2C(=O)N1CCOCC1`, the relative growth is inactive: 0.986.

Consider `Cc1noc(C)c1S(=O)(=O)Nc1ccc2c(c1)CC(=O)N([C@@H](C)CO)C[C@@H](C)[C@H](CN(C)Cc1ccc(Oc3ccccc3)cc1)O2`, for which the relative growth was inactive: 0.996.

For `CC1=C(C(=O)O)N2C(=O)C(NC(=O)C(N)c3ccc(O)cc3)C2SC1` (stereo unspecified), the relative growth is inactive: 0.986.

With `C[C@H](N)C(=O)NCC(=O)N[C@H]1CSSC[C@@H](C(=O)O)NC(=O)[C@H](CO)NC(=O)[C@H]([C@@H](C)O)NC(=O)[C@H](Cc2ccccc2)NC(=O)[C@H]([C@@H](C)O)NC(=O)[C@H](CCCCN)NC(=O)[C@H](Cc2c[nH]c3ccccc23)NC(=O)[C@H](Cc2ccccc2)NC(=O)[C@H](Cc2ccccc2)NC(=O)[C@H](CC(N)=O)NC(=O)[C@H](CCCCN)NC1=O`, the relative growth is inactive: 0.962.

For the compound `CCS(=O)(=O)Nc1ccc2c(c1)C(=O)N(C)[C@H]1CC[C@H](CC(=O)N[C@H]3CCN(Cc4ccccc4)C3)O[C@H]1CO2`, the relative growth was inactive: 1.01.

For `COc1ccc(NC(=O)Nc2ccc3c(c2)C(=O)N([C@H](C)CO)C[C@H](C)[C@H](CN(C)Cc2ccccc2)OCCCC[C@H](C)O3)cc1`, the relative growth is inactive: 0.966.

As for `CC(C)(C)[S@@](=O)N1Cc2cc(C(=O)NCCc3ccncc3)nc(-c3cccc(-c4cccc(C#N)c4)c3)c2[C@H]1CCO`, the relative growth was inactive: 1.01.

Take `CCNC(=O)[C@@H]1CCCN1C(=O)[C@H](CCCN=C(N)N)NC(=O)[C@H](CC(C)C)NC(=O)[C@@H](COC(C)(C)C)NC(=O)[C@H](Cc1ccc(O)cc1)NC(=O)[C@H](CO)NC(=O)[C@H](Cc1c[nH]c2ccccc12)NC(=O)[C@H](Cc1c[nH]cn1)NC(=O)[C@@H]1CCC(=O)N1`: the relative growth was inactive: 0.95.

In the case of `CC1CCC2(C)C(C=O)=CCCC2C1(C)CC1OC(O)C(=O)C12CO2` (stereo unspecified), the relative growth was active: 0.0462.

Turning to `CC(=O)n1cc([C@H]2C=C(C(=O)N3CCN(Cc4ccccc4)CC3)O[C@@H](OCc3ccc(CO)cc3)C2)c2ccccc21`, the relative growth is inactive: 1.

Take `C[C@@H]1CN([C@H](C)CO)S(=O)(=O)c2ccc(C3=CCCCC3)cc2O[C@H]1CN(C)S(=O)(=O)c1cn(C)cn1`: the relative growth was inactive: 0.995.

For `C[C@H](CO)N1C[C@H](C)[C@H](CN(C)Cc2ccc(C(=O)Nc3ccccc3N)cc2)Oc2ccc(NC(=O)CCN3CCOCC3)cc2CC1=O`, the relative growth was inactive: 0.917.

Turning to `Cc1cn([C@@H]2C[C@@H](O)[C@H](CO)O2)c(=O)[nH]c1=O`, the relative growth is inactive: 0.991.

For `C[C@H]1CN([C@@H](C)CO)C(=O)c2cc(NC(=O)Cn3cnnn3)ccc2O[C@@H]1CN(C)C(=O)Nc1ccccc1`, the relative growth is inactive: 1.01.

Turning to `CC[C@H](C(=O)N1CCCC[C@H]1C(=O)O[C@H](CCc1ccc(OC)c(OC)c1)c1cccc(OCC(=O)NCCNC(=O)COc2cccc([C@@H](CCc3ccc(OC)c(OC)c3)OC(=O)[C@@H]3CCCCN3C(=O)[C@@H](CC)c3cc(OC)c(OC)c(OC)c3)c2)c1)c1cc(OC)c(OC)c(OC)c1`, the relative growth was inactive: 1.

Take `Cc1ccc(-c2csc(-c3ccc(C(F)(F)F)cc3)n2)cc1`: the relative growth was inactive: 0.984.

`C[C@@H]1CN([C@H](C)CO)C(=O)c2cccc(NS(C)(=O)=O)c2O[C@@H]1CN(C)S(C)(=O)=O`: the relative growth is inactive: 0.996.

As for `Cn1c(=O)n2n(c1=O)[C@H](C1CC1)C=C1CN3[C@@H]([C@H](Cc4ccccc4)OC(=O)[C@@H]3COC(=O)NCCCCCC(=O)NO)[C@@H]12`, the relative growth was inactive: 0.988.

With `C[C@@H]1CN([C@@H](C)CO)C(=O)c2cc(NC(=O)CCCN(C)C)ccc2O[C@@H]1CN(C)S(=O)(=O)c1ccc(Cl)cc1`, the relative growth is inactive: 1.

With `C[C@H](CO)N1C[C@H](C)[C@H](CN(C)C(=O)Nc2ccc(C(F)(F)F)cc2)Oc2ccc(NC(=O)Nc3cccc4ccccc34)cc2CC1=O`, the relative growth is inactive: 0.985.

On to `C[C@@H]1CCCCO[C@H](CN(C)S(=O)(=O)c2ccc(Cl)cc2)[C@@H](C)CN([C@@H](C)CO)C(=O)c2cc(NC(=O)C3CCCCC3)ccc2O1`, for which the relative growth is inactive: 1.02.

As to `CCOC(=O)CC1(N)CCCCC1`, the relative growth was inactive: 0.984.

As to `CC(C)NC(=O)N(C)C[C@@H]1Oc2ccc(NC(=O)c3ccncc3)cc2CC(=O)N([C@H](C)CO)C[C@H]1C`, the relative growth was inactive: 0.979.

As to `Cc1noc(C2CNC2)n1`, the relative growth was inactive: 1.01.

On to `CCCN(C)C[C@H]1OCCCC[C@@H](C)Oc2ccc(NC(=O)Nc3ccc(C(F)(F)F)cc3)cc2C(=O)N([C@@H](C)CO)C[C@H]1C`, for which the relative growth was inactive: 0.968.

As to `CN(C)CC(=O)N[C@H]1CC[C@H](CCNS(=O)(=O)c2ccccc2)O[C@@H]1CO`, the relative growth was inactive: 1.

`CC(N)(Cc1ccc2c(c1)OCO2)C(=O)O` (stereo unspecified): the relative growth is inactive: 1.04.

Take `CC(C)NC(=O)Nc1cccc2c1O[C@@H](CN(C)C(=O)Nc1ccc3c(c1)OCO3)[C@@H](C)CN([C@H](C)CO)C2=O`: the relative growth is inactive: 0.977.

Turning to `C[C@@H]1CN([C@H](C)CO)S(=O)(=O)c2ccc(C#Cc3cccc(F)c3)cc2O[C@@H]1CN(C)CC1CC1`, the relative growth is inactive: 0.981.

On to `C[C@@H]1CCCCO[C@@H](CN(C)C(=O)CCC(F)(F)F)[C@@H](C)CN([C@@H](C)CO)C(=O)c2cc(NC(=O)C3CCCCC3)ccc2O1`, for which the relative growth was inactive: 0.988.

`CC(C)NC(=O)Nc1ccc2c(c1)C(=O)N(C)[C@@H]1CC[C@@H](CC(=O)NCc3ccc(F)cc3)O[C@H]1CO2`: the relative growth was inactive: 1.03.

Regarding `CO[C@H]1CN(C)C(=O)c2cc(NC(=O)Nc3ccc(Cl)cc3)ccc2OC[C@@H](C)N(C(=O)Nc2c(C)noc2C)C[C@H]1C`, the relative growth is inactive: 0.99.

As for `C[C@H]1CN([C@@H](C)CO)C(=O)c2cc(/C=C/c3ccccc3)cnc2O[C@@H]1CN(C)S(=O)(=O)c1cn(C)cn1`, the relative growth was inactive: 0.996.

On to `C[C@@H]1CN([C@H](C)CO)C(=O)c2cc(C#C[C@@H](C)O)cnc2O[C@@H]1CN(C)C(=O)Nc1ccc(C(F)(F)F)cc1`, for which the relative growth was inactive: 1.01.

On to `CC(=O)n1cc([C@@H]2C=C(C(=O)N3CCN(Cc4ccccc4)CC3)O[C@H](OCc3ccc(CO)cc3)C2)c2ccccc21`, for which the relative growth is inactive: 1.02.

Turning to `C[C@H](CO)N1C[C@H](C)[C@@H](CN(C)C(=O)Nc2ccc3c(c2)OCO3)Oc2cc(C#Cc3cccnc3)ccc2S1(=O)=O`, the relative growth is inactive: 1.02.

For the compound `Cc1noc(C)c1NC(=O)Nc1ccc2c(c1)C(=O)N([C@H](C)CO)C[C@@H](C)[C@H](CN(C)Cc1ccncc1)OCCCC[C@@H](C)O2`, the relative growth is inactive: 0.993.

With `Cc1ccc(S(=O)(=O)N(C)C[C@H]2OCCCC[C@H](C)Oc3ccc(NC(=O)Cc4ccccc4)cc3C(=O)N([C@@H](C)CO)C[C@@H]2C)cc1`, the relative growth was inactive: 0.993.

Consider `C[C@H](CO)N1C[C@H](C)[C@H](CN(C)C(=O)c2cc(-c3ccccc3)on2)OCc2cnnn2CCCC1=O`, for which the relative growth was inactive: 0.995.

`COCCNC(=O)C[C@H]1CC[C@@H]2[C@H](COC[C@H](O)CN2C(=O)Nc2ccc3c(c2)OCO3)O1`: the relative growth was inactive: 0.988.

`CC1=CC[C@H](C(C)(C)O)CC1`: the relative growth was inactive: 0.957.

As to `CC(C)NC(=O)Nc1ccc2c(c1)C(=O)N([C@@H](C)CO)C[C@@H](C)[C@@H](CN(C)C(=O)C1CCCCC1)OCCCC[C@H](C)O2`, the relative growth is inactive: 0.978.

`C[C@H]1CN([C@@H](C)CO)C(=O)c2cc(NC(=O)C3CCCCC3)ccc2O[C@H]1CN(C)Cc1ccc(C(=O)Nc2ccccc2N)cc1`: the relative growth is inactive: 0.938.
